What was measured:
[1] = target: CD47 antigen expressed on CHO-K1 cells (UniProt Q08722); test: flow cytometry
[2] = target: T1, TIGIT antigen expressed on CHO-K1 cells (UniProt Q495A1 22-244); test: flow cytometry
T1 chain: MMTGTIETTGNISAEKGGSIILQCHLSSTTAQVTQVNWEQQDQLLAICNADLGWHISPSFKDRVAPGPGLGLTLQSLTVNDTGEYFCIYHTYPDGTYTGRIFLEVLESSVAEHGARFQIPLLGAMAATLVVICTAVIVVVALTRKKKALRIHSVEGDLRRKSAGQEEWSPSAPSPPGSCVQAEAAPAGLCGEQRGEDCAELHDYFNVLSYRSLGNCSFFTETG

UniProt Q08722, sequence (Q08722 19-323): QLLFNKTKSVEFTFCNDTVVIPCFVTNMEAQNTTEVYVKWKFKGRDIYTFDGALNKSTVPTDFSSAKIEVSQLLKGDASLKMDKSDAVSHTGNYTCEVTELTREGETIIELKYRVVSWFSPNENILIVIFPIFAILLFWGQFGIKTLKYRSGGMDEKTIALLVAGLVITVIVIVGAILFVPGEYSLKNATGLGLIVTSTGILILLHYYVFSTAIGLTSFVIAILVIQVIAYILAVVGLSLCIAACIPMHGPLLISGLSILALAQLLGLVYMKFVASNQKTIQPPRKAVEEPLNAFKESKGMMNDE

EC50 [1]: ~0.0695 nM | EC50 [2]: 0.46 nM
B1: sdAb-TIGIT-IgG4PE (Fc fusion)
chain: EVQLVESGGGLVQPGGSLRLSCAASGYKYGVYSMGWFRQAPGKGLEGVSAICSGGRTTYSDSVKGRFTISRDNSNQILYLQMNSLRAEDTAVYYCAARPLWTGDCDLSSSWYKTWGQGTLVTVSS[human IgG4 Fc with changes not listed]
